The full ranking holds about 33,000 sequences; the median of “E-score (-0.5 to 0.5)” is about -0.04, and the highest 2% start at about 0.36. Some of the results follow.
What follows are sequences tested against T1, Hmlalpha2 (UniProt P0CY09) (assay: PBM E-score (8-mer binding enrichment) (E-score (-0.5 to 0.5)); higher = stronger / more preferred TF binding; most listed sequences are background and not binding sites). Details: protein concentration: 200 nM; construct: GST-full length.
T1 sequence: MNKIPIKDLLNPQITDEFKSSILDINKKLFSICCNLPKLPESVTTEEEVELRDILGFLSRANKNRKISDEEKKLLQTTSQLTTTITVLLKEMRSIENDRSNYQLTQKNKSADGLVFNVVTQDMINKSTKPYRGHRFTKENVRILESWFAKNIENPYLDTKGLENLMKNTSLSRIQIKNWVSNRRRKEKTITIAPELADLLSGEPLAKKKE
Summary of the method: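 Bound GST-tagged yeast transcription factors, applied at about 100-200 nM to double-stranded universal all-10-mer Agilent arrays, were detected with fluorescent anti-GST. Scans were normalised with masliner. A modified Wilcoxon-Mann-Whitney statistic, the E-score, was assigned to each ungapped eight-base word pooled with its reverse complement by the Universal PBM Analysis Suite.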

Sequence	PBM E-score
ACAACCCG	0.126
GGCCGCTA	-0.245
AATTCGGG	-0.159
AAAGCCAG	-0.0722
GGTCTTGA	-0.124
CTGCTATC	-0.154
CTGAGGAA	-0.219
AGGGTTAA	-0.00153
CTTTCGGA	-0.329
GAGCATTA	0.064
AGGAACGC	-0.188
GCCTGAGC	-0.327
ACGTGCAC	0.0641
ACTACGGG	-0.182
GTGGCAAA	-0.174
ATGGGGGG	-0.176
CTCTCTAA	-0.209
CTGAGCCC	-0.22
ATCTCCTA	-0.148
CAATAGAA	-0.133
AGGTCTCC	-0.285
ACTACACC	0.166
ACCCGATC	-0.0242
CACCTAGG	-0.14
AAGTGCAG	-0.155

Sequence	PBM E-score
ACAACTGT	0.137
CTAGCATC	-0.0105
AAGAGCTC	-0.0309
CGGGACGC	-0.184
AGTCAATC	-0.0505
AAGAGGGT	-0.0959
ACTGCGAG	-0.206
AGTGCCTA	-0.0106
AATTTGGG	0.00361
ATCCCAAT	0.00934
AACTCGAC	0.13
AGAGCGCA	-0.342
ATGTATAG	0.362
AGTTCGTC	0.117
CTGCGTCA	-0.0049
CACCGGCA	-0.19
CGCGTCCC	-0.0711
ATTGCCTA	0.0496
ACTGGGCT	-0.117
GTTAAGGA	0.175
AGTAATTG	0.215
AGACTGAC	-0.085
CTTGCCTA	-0.112
GCACGCGC	0.0403
ACGAGATC	-0.0412

Sequence	PBM E-score
AGGCTTCG	-0.16
ACGCTCCG	-0.208
GATCTTAA	-0.00066
CTTCAAGA	0.141
GACACGTC	0.2
AGCGAGCG	0.0472
GATATTAA	0.0587
GATCTTAC	0.108
GCTGAAGC	-0.14
CTCTCTTC	-0.318
AAGCTCAA	0.145
AACTTTAG	0.19
CGAGGCGA	-0.229
AGCCCTCC	-0.312
AATACACG	0.473
AGTTACGA	0.173
CGACATGC	0.311
AGGCGGAC	-0.27
ACATAGAG	0.237
ACGTCTGA	0.0238
CAGGAAGA	-0.0764
CTGACACC	-0.192
ACAATGCT	0.154
ACGGACCA	0.118
CTCCTATA	-0.164

Sequence	PBM E-score
CCACAATC	-0.238
ATCATATA	0.154
CGTGCCTC	-0.119
AGTCCGGC	-0.0446
GAACTGAA	0.00892
TAAGGACA	0.114
GCACTTAC	0.0534
AGCCGAAA	-0.128
CTCCCGTA	-0.272
GGCTTGCA	0.133
CGCTGACA	0.0535
AATTTACC	0.12
GTGCTAAC	0.0449
TGGATTAA	-0.0387
GGTAGAAC	-0.0525
ACATTGGT	0.0705
GCCCCCAA	-0.222
ACTATAAG	0.0547
GAGGTGGC	-0.276
AAGATGAT	0.11
AATGACTA	-0.0193
CGACCGCA	-0.186
ATGTGGGG	-0.234
AGCTGTAG	-0.0733
ACGTGACT	0.00927

Sequence	PBM E-score
TGGTTCAA	-0.0554
CCTCGCTC	-0.0593
CCTAGCAA	-0.0638
GACACGAC	0.394
CAAAGAGG	-0.144
GATTCATA	-0.0484
AATCGACT	0.0207
CAATAGCC	0.0346
CTAGGAGC	-0.218
CTCGAATA	-0.165
GAGTTGCA	-0.0333
AAAGAATT	0.0942
ATGCACCG	-0.12
CCGCACAA	-0.255
CTAAGGCA	-0.116
ACACGCGC	0.304
CGTCCCAC	0.0414
AATCGTAG	0.0806
AAGGTAGA	0.0007
AGATTTAA	0.182
GTTGACAA	0.25
CTGCCCAA	-0.138
CACAGGTG	-0.0488
AACTACCC	-0.129
ATACGTGC	0.263

Sequence	PBM E-score
TACAAGAA	0.337
GTAAGCAC	0.119
CCGGGCTA	-0.21
CTAGTCAC	-0.123
CCTGCAAA	-0.25
CAGTGACC	-0.302
GCTACTGA	-0.0621
GAAAGAAA	0.0793
ACTCCCGA	-0.117
AACGGTAA	0.0273
GTAGGGTA	0.0755
AGCTATCA	-0.0383
GTCCAGAC	-0.23
AGTCTACG	-0.0918
CAGGGTAG	-0.236
GGTCCACC	-0.27
AGCAACAC	0.26
AGCAAAAC	0.0847
AATGATGC	0.0435
AATCAGTG	-0.113
AGTTTGGG	-0.147
AGCGGATC	-0.136
AACGTGAC	0.0593
CGGATTGA	-0.0984
ATTGACGG	-0.0674

Sequence	PBM E-score
CGGTAGAA	-0.175
CCGTTAAG	-0.0932
TGCAATAA	0.156
GATCAGCC	-0.265
CATGTCCC	0.0423
CGCATCTA	0.0697
AAATTATG	0.0141
ACCCGCTA	0.0482
ATTCTGTA	0.114
AGAAGTAA	0.113
CGACACCC	-0.168
CTGCCATC	-0.239
AAGTGGTC	-0.174
GAGGTACC	-0.293
ACCTGGGA	0.0291
CAGTTTAA	0.208
AATGCAAC	0.08
CTTTTGGC	-0.169
TAATTCGA	0.121
ATACTTAA	0.264
ATTTCAGC	-0.11
CTGACATC	-0.0813
